Drawing on the antibiotic and cytotoxicity screens of Wong et al. (2023), this text covers cytotoxicity call and growth inhibition call for 40 compounds.

Some of the results follow.

In the first assay the test system is HepG2. The assay can be described thus: cytotoxicity call (relative viability < 0.9). The conditions noted are these: 10 µM.
For `CNC[C@@H]1Oc2ccc(NS(=O)(=O)c3cn(C)cn3)cc2C(=O)N([C@@H](C)CO)C[C@@H]1C`, the cytotoxicity call was “inactive”.

Take `C[C@@H]1CN([C@@H](C)CO)C(=O)Cc2cc(NC(=O)CCCN(C)C)ccc2O[C@H]1CN(C)S(=O)(=O)c1cccs1`: the cytotoxicity call is “inactive”.

`C[C@@H]1CCCCO[C@@H](CN(C)Cc2ccc(C(=O)O)cc2)[C@@H](C)CN([C@H](C)CO)C(=O)c2cc(NS(=O)(=O)c3ccccc3)ccc2O1`: the cytotoxicity call is “inactive”.

`NCc1cc(-c2ccccc2Cl)on1`: the cytotoxicity call is “inactive”.

Consider `C[C@@H]1CN([C@@H](C)CO)C(=O)c2cc(NS(=O)(=O)c3ccc(Cl)cc3)ccc2O[C@@H]1CN(C)S(C)(=O)=O`, for which the cytotoxicity call is “inactive”.

For `CC(=O)Nc1cc2c(s1)CCCC2`, the cytotoxicity call was “inactive”.

In the case of `NCC[C@@H]1CC[C@@H](NC(=O)C2CCC2)[C@@H](CO)O1`, the cytotoxicity call is “inactive”.

Regarding `CC(C)NC(=O)Nc1cccc2c1O[C@H](CN(C)S(=O)(=O)c1cn(C)cn1)[C@H](C)CN([C@H](C)CO)C2=O`, the cytotoxicity call is “inactive”.

As to `C[C@@H]1CCCCO[C@@H](CN(C)C(=O)CCC(F)(F)F)[C@@H](C)CN([C@@H](C)CO)C(=O)c2cc(NC(=O)CCC(F)(F)F)ccc2O1`, the cytotoxicity call is “inactive”.

Consider `C[C@@H]1CN([C@@H](C)CO)S(=O)(=O)c2ccc(C#Cc3ccccc3)cc2O[C@@H]1CN(C)C(=O)CN(C)C`, for which the cytotoxicity call was “active”.

For the compound `Cc1ccc(S(=O)(=O)N(C)C[C@@H]2OCCCC[C@H](C)Oc3ccc(NC(=O)Nc4c(C)noc4C)cc3C(=O)N([C@@H](C)CO)C[C@H]2C)cc1`, the cytotoxicity call is “inactive”.

On to `CC[C@@H](O[Si](C#C[Si](C(C)C)(C(C)C)C(C)C)(C(C)C)C(C)C)c1cn(Cc2cccc(Cl)c2)nn1`, for which the cytotoxicity call was “inactive”.

In the case of `CCOC(=O)CCCCCC(=O)Nc1ccc2c(c1)C(=O)N([C@@H](C)CO)C[C@@H](C)[C@H](CN(C)S(=O)(=O)c1cccs1)OCCCC[C@H](C)O2`, the cytotoxicity call was “inactive”.

As to `Cn1cnc(S(=O)(=O)N2C[C@H](O)COC[C@H]3O[C@H](CC(=O)NC4CCC4)CC[C@@H]32)c1`, the cytotoxicity call was “inactive”.

Consider `C[C@H]1CN([C@@H](C)CO)C(=O)Cc2cc(NC(=O)CCCCCC(=O)Nc3ccccc3N)ccc2O[C@H]1CN(C)C(=O)Nc1ccc(C(F)(F)F)cc1`, for which the cytotoxicity call is “inactive”.

As for `C[C@H]1CCCCO[C@H](CN(C)C(=O)Nc2ccc3c(c2)OCO3)[C@@H](C)CN([C@@H](C)CO)C(=O)c2cc(NC(=O)c3ccccc3)ccc2O1`, the cytotoxicity call is “inactive”.

For the compound `C[C@H](CO)N1C[C@H](C)[C@@H](CN(C)S(=O)(=O)c2cn(C)cn2)Oc2ncc(C3=CCCCC3)cc2C1=O`, the cytotoxicity call is “inactive”.

In the case of `Cc1ccc(S(=O)(=O)N2C[C@H](O)COC[C@H]3O[C@H](CC(=O)N[C@@H]4CCN(Cc5ccccc5)C4)CC[C@@H]32)cc1`, the cytotoxicity call was “inactive”.

For the compound `Cc1ccc(S(=O)(=O)N(C)C[C@H]2Oc3ccc(NS(=O)(=O)c4ccccc4)cc3CC(=O)N([C@H](C)CO)C[C@H]2C)cc1`, the cytotoxicity call was “inactive”.

As for `COc1ccc(S(=O)(=O)Nc2ccc3c(c2)C(=O)N([C@H](C)CO)C[C@@H](C)[C@H](CN(C)C(=O)Nc2ccc4c(c2)OCO4)OCCCC[C@H](C)O3)cc1`, the cytotoxicity call is “inactive”.

For the compound `COc1ccc(S(=O)(=O)N(C)C[C@H]2Oc3ccc(NS(=O)(=O)c4c(C)noc4C)cc3CC(=O)N([C@H](C)CO)C[C@H]2C)cc1`, the cytotoxicity call was “inactive”.

For the compound `C[C@H](CO)N1C[C@H](C)[C@H](CN(C)C(=O)Cc2ccccc2)Oc2cc(C#CC3(O)CCCC3)ccc2S1(=O)=O`, the cytotoxicity call is “inactive”.

Consider `COc1ccc(C#Cc2cnc3c(c2)C(=O)N([C@@H](C)CO)C[C@H](C)[C@H](CN(C)C(=O)CN(C)C)O3)cc1`, for which the cytotoxicity call was “inactive”.

On to `O=C(NCCCN1CCOCC1)[C@@H]1[C@@H](CO)[C@@H]2Cn3c(cccc3=O)[C@H]1N2C(=O)C1CCCCC1`, for which the cytotoxicity call was “inactive”.

Regarding `C[C@H](CO)N1C[C@H](C)[C@H](CN(C)S(=O)(=O)c2cn(C)cn2)Oc2ncc(C#Cc3ccc(C(F)(F)F)cc3)cc2C1=O`, the cytotoxicity call is “inactive”.

Regarding `C[C@@H]1CN([C@H](C)CO)C(=O)c2cc(NS(=O)(=O)c3cn(C)cn3)ccc2O[C@H]1CN(C)S(=O)(=O)c1cn(C)cn1`, the cytotoxicity call is “inactive”.

As for `C[C@H]1CCCCO[C@@H](CN(C)C(=O)C2CCCCC2)[C@@H](C)CN([C@@H](C)CO)C(=O)c2cc(NC(=O)Nc3ccc(F)cc3)ccc2O1`, the cytotoxicity call is “active”.

Consider `O=C(C[C@H]1C[C@@H]2c3cc(NS(=O)(=O)c4ccc(F)cc4)ccc3O[C@@H]2[C@H](CO)O1)NCc1ccccn1`, for which the cytotoxicity call is “inactive”.

Regarding `CO[C@H]1CN(C(=O)c2ccnnc2)[C@H]2COC[C@@H]12`, the cytotoxicity call was “inactive”.

For `COc1ccc(NC(=O)N(C)C[C@H]2Oc3c(NC(=O)c4cc(C)nn4C)cccc3C(=O)N([C@@H](C)CO)C[C@H]2C)cc1`, the cytotoxicity call is “inactive”.

Another assay relates to S. aureus RN4220. The assay can be described thus: growth inhibition call (relative growth <= 0.2). The conditions noted are these: 50 µM.
`COc1ccc(NC(=O)Nc2ccc3c(c2)C(=O)N([C@@H](C)CO)C[C@@H](C)[C@@H](CN(C)Cc2ccccc2)OCCCC[C@H](C)O3)cc1`: the growth inhibition call was “inactive”.

In the case of `C[C@@H]1CCCCO[C@@H](CN(C)CC2CCCCC2)[C@H](C)CN([C@H](C)CO)C(=O)c2cc(NS(=O)(=O)c3ccc(Cl)cc3)ccc2O1`, the growth inhibition call was “inactive”.

`Cc1cc(C)c(C(=O)O)c(=O)[nH]1`: the growth inhibition call is “inactive”.

With `C[C@H](CO)N1C[C@H](C)[C@@H](CN(C)Cc2ccc(C(=O)Nc3ccccc3N)cc2)OCCCC[C@H](C)Oc2ccc(N(C)C)cc2C1=O`, the growth inhibition call is “inactive”.

As to `CC(C)(C)OC(=O)CC[C@@]12N=C(c3ccc(OCCCO)cc3)O[C@@H]1c1ccccc1CN(Cc1ccccc1)C2=O`, the growth inhibition call is “inactive”.

With `C[C@H](CO)N1C[C@H](C)[C@H](CN(C)Cc2ccc3c(c2)OCO3)OCCCC[C@H](C)Oc2ccc(NC(=O)NC3CCCCC3)cc2C1=O`, the growth inhibition call was “inactive”.

Take `C[C@H]1CN([C@@H](C)CO)C(=O)c2cc(NC(=O)CCN3CCOCC3)ccc2O[C@@H]1CN(C)S(C)(=O)=O`: the growth inhibition call is “inactive”.

In the case of `COc1ccc(NC(=O)Nc2ccc3c(c2)C(=O)N([C@@H](C)CO)C[C@@H](C)[C@H](CN(C)S(=O)(=O)c2ccc(OC)cc2)OCCCC[C@H](C)O3)cc1`, the growth inhibition call was “inactive”.

For `C[C@@H]1CCCCO[C@H](CN(C)C(=O)Cc2ccccc2)[C@H](C)CN([C@@H](C)CO)C(=O)c2cc(NC(=O)Cc3ccccc3)ccc2O1`, the growth inhibition call is “inactive”.

On to `COc1ccc2c3c(n(c2c1)C)[C@H](CO)N(C[C@]13CN(Cc2ccncc2)C1)C(=O)CN1CCOCC1`, for which the growth inhibition call was “inactive”.

Regarding `CNC[C@@H]1Oc2ccc(NS(=O)(=O)c3cn(C)cn3)cc2C(=O)N([C@@H](C)CO)C[C@@H]1C`, the growth inhibition call was “inactive”.

As to `C[C@@H]1CN([C@@H](C)CO)C(=O)Cc2cc(NC(=O)CCCN(C)C)ccc2O[C@H]1CN(C)S(=O)(=O)c1cccs1`, the growth inhibition call is “inactive”.

As for `C[C@@H]1CCCCO[C@@H](CN(C)Cc2ccc(C(=O)O)cc2)[C@@H](C)CN([C@H](C)CO)C(=O)c2cc(NS(=O)(=O)c3ccccc3)ccc2O1`, the growth inhibition call was “inactive”.

Turning to `NCc1cc(-c2ccccc2Cl)on1`, the growth inhibition call was “inactive”.

On to `C[C@@H]1CN([C@@H](C)CO)C(=O)c2cc(NS(=O)(=O)c3ccc(Cl)cc3)ccc2O[C@@H]1CN(C)S(C)(=O)=O`, for which the growth inhibition call is “inactive”.

`CC(=O)Nc1cc2c(s1)CCCC2`: the growth inhibition call was “inactive”.

Turning to `NCC[C@@H]1CC[C@@H](NC(=O)C2CCC2)[C@@H](CO)O1`, the growth inhibition call was “inactive”.

Turning to `CC(C)NC(=O)Nc1cccc2c1O[C@H](CN(C)S(=O)(=O)c1cn(C)cn1)[C@H](C)CN([C@H](C)CO)C2=O`, the growth inhibition call is “inactive”.

`C[C@@H]1CCCCO[C@@H](CN(C)C(=O)CCC(F)(F)F)[C@@H](C)CN([C@@H](C)CO)C(=O)c2cc(NC(=O)CCC(F)(F)F)ccc2O1`: the growth inhibition call was “inactive”.

Turning to `C[C@@H]1CN([C@@H](C)CO)S(=O)(=O)c2ccc(C#Cc3ccccc3)cc2O[C@@H]1CN(C)C(=O)CN(C)C`, the growth inhibition call is “active”.

In the case of `Cc1ccc(S(=O)(=O)N(C)C[C@@H]2OCCCC[C@H](C)Oc3ccc(NC(=O)Nc4c(C)noc4C)cc3C(=O)N([C@@H](C)CO)C[C@H]2C)cc1`, the growth inhibition call was “inactive”.

Consider `CC[C@@H](O[Si](C#C[Si](C(C)C)(C(C)C)C(C)C)(C(C)C)C(C)C)c1cn(Cc2cccc(Cl)c2)nn1`, for which the growth inhibition call was “inactive”.

Consider `CCOC(=O)CCCCCC(=O)Nc1ccc2c(c1)C(=O)N([C@@H](C)CO)C[C@@H](C)[C@H](CN(C)S(=O)(=O)c1cccs1)OCCCC[C@H](C)O2`, for which the growth inhibition call was “inactive”.

`Cn1cnc(S(=O)(=O)N2C[C@H](O)COC[C@H]3O[C@H](CC(=O)NC4CCC4)CC[C@@H]32)c1`: the growth inhibition call was “inactive”.

Take `C[C@H]1CN([C@@H](C)CO)C(=O)Cc2cc(NC(=O)CCCCCC(=O)Nc3ccccc3N)ccc2O[C@H]1CN(C)C(=O)Nc1ccc(C(F)(F)F)cc1`: the growth inhibition call was “inactive”.

Consider `C[C@H]1CCCCO[C@H](CN(C)C(=O)Nc2ccc3c(c2)OCO3)[C@@H](C)CN([C@@H](C)CO)C(=O)c2cc(NC(=O)c3ccccc3)ccc2O1`, for which the growth inhibition call was “inactive”.

Take `C[C@H](CO)N1C[C@H](C)[C@@H](CN(C)S(=O)(=O)c2cn(C)cn2)Oc2ncc(C3=CCCCC3)cc2C1=O`: the growth inhibition call was “inactive”.

In the case of `Cc1ccc(S(=O)(=O)N2C[C@H](O)COC[C@H]3O[C@H](CC(=O)N[C@@H]4CCN(Cc5ccccc5)C4)CC[C@@H]32)cc1`, the growth inhibition call is “inactive”.

For `Cc1ccc(S(=O)(=O)N(C)C[C@H]2Oc3ccc(NS(=O)(=O)c4ccccc4)cc3CC(=O)N([C@H](C)CO)C[C@H]2C)cc1`, the growth inhibition call is “inactive”.

As for `COc1ccc(S(=O)(=O)Nc2ccc3c(c2)C(=O)N([C@H](C)CO)C[C@@H](C)[C@H](CN(C)C(=O)Nc2ccc4c(c2)OCO4)OCCCC[C@H](C)O3)cc1`, the growth inhibition call is “inactive”.

`COc1ccc(S(=O)(=O)N(C)C[C@H]2Oc3ccc(NS(=O)(=O)c4c(C)noc4C)cc3CC(=O)N([C@H](C)CO)C[C@H]2C)cc1`: the growth inhibition call was “inactive”.

In the case of `C[C@H](CO)N1C[C@H](C)[C@H](CN(C)C(=O)Cc2ccccc2)Oc2cc(C#CC3(O)CCCC3)ccc2S1(=O)=O`, the growth inhibition call was “inactive”.

`COc1ccc(C#Cc2cnc3c(c2)C(=O)N([C@@H](C)CO)C[C@H](C)[C@H](CN(C)C(=O)CN(C)C)O3)cc1`: the growth inhibition call was “inactive”.
